Results taken from PubChem BioAssay AID624296 (National Center for Advancing Translational Sciences (NCATS), 2012).
About 9,900 (2.8%) of roughly 350,000 compounds were called active. This list was built around the results that the source calls inconclusive (neither active nor inactive); the mix of calls is not that of the screen. The call rests on the fitted dose curve; in most records, active means well fitted activation curve with a large enough effect; inconclusive means small, poorly fitted or top-dose-only effect; inactive means no such curve, though single readings can be large or run the other way. No potency is given beside an inconclusive call; the fits are too rough.

Assay: A quantitative high throughput screen for small molecules that induce DNA re-replication in MCF 10a normal breast cells. Further: nearly all actives have a fitted effect of over 50% in size.
Details: MCF 10A DNA re-replication, Hoechst nuclear intensity, 48 h; series mostly up to 46.1 µM
Potency means the concentration at half of the fitted maximal effect; tags describe the fitted curve by direction and shape.

| SMILES | Potency |
| --- | --- |
| C=CCn1nnc2sc3c(c2c1=O)CCC(C)C3 (centres undefined) | inactive |
| Cc1cccc(/C=N/NC(=O)c2cccc([N+](=O)[O-])c2)n1 | inactive |
| CCN(CC(=O)Nc1c(F)cccc1F)C(=O)c1ccc2c(c1)OCO2 | inactive |
| CSc1nnc(C(C)(C)C)c(=O)n1/N=C/c1ccc(Cl)cc1 | inactive |
| COc1ccc(-c2nc(NC(=O)c3ccc(OCC(=O)Nc4ccc(F)cc4)c(OC)c3)sc2C)cc1 | active: 20.6 µM |
| O=C(/C=C/c1ccc2c(c1)OCO2)N1CCN(c2ccc(Cl)cc2)CC1 | inconclusive [activator, single point] |
| CC(C)N1CCc2c(sc(NC(=O)CCc3ccccc3)c2C(N)=O)C1 | inconclusive [activator, partial curve, poor fit] |
| CC(C)N(C(=O)COC(=O)c1ccccc1C(=O)c1ccc(Cl)c([N+](=O)[O-])c1)C(C)C | inconclusive [activator, single point] |
| CN(Cc1ccno1)Cc1cn(C)nc1-c1ccc(Oc2ccccc2)cc1 | inconclusive [activator, partial curve, poor fit] |
| CC(C)(C)c1ccc(C(=O)CCCN2CCC(OC(c3ccccc3)c3ccccc3)CC2)cc1 | active: 11.9 µM |
| Cn1c(N2CCN(C(c3ccccc3)c3ccccc3)CC2)nc2ccccc21 | active: 23.1 µM |
| CC(C)CNS(=O)(=O)c1ccc(CCC(=O)NCCC2=CCCCC2)cc1 | inconclusive [activator, partial curve, poor fit] |
| Cc1cc2ncn(/N=C/c3ccc([N+](=O)[O-])o3)c2cc1C | active: 20.6 µM |
| CCN(CC)c1ccc(C(=O)OCC(=O)Nc2cccc(S(=O)(=O)NC3=NCCCCC3)c2)cc1 | inconclusive [activator, single point] |
| Cc1c(O)cc2c(c1O)C(=O)CC(c1ccccc1)O2 (centres undefined) | inconclusive [activator, partial curve, poor fit] |
| CCCc1ccc(OCCNC(=O)C2CCCCC2)cc1 | inconclusive [activator, single point] |
| CCN(CC)S(=O)(=O)c1ccc(C(=O)NCCc2cc3c(OC)ccc(OC)c3[nH]c2=O)cc1 | inconclusive [activator, partial curve, poor fit] |
| COc1ccc(N2CCN(CC(=O)Nc3cccc(S(=O)(=O)N4CCOCC4)c3)CC2)cc1 | inactive |
| O=C(NCCc1cccc(C(F)(F)F)c1)C1CCC(=O)N(CCc2cccc(F)c2)C1 (centres undefined) | inconclusive [activator, full curve, poor fit] |
| CCOC(=O)C1Oc2ccccc2C(c2ccc(C)cc2)=C1C(=O)OC (centres undefined) | inconclusive [activator, full curve, poor fit] |
| COc1ccc(C2CC(=O)C3=C(C2)Nc2ccccc2N(C(=O)CCC(=O)O)C3c2ccc(F)cc2)cc1 (centres undefined) | inactive |
| Cc1cc(O)c(C(C)C)cc1C1(c2cc(C(C)C)c(O)cc2C)OC(=O)c2ccccc21 | active: 9.2 µM |

| SMILES | Potency |
| --- | --- |
| CS(=O)(=O)N(CC(=O)N1CCCCCC1)Cc1ccc(Cl)cc1 | inactive |
| Cc1cc(NC(=O)COC(=O)c2ccc(OC(F)(F)F)cc2)no1 | inactive |
| COc1ccc([N+](=O)[O-])cc1N(CC(=O)NC(C(C)C)C(C)C)S(C)(=O)=O | inactive |
| CCCc1nc2ccc(NC(=O)c3cccs3)cc2c(=O)n1Cc1ccc(Cl)cc1 | inactive |
| COc1ccc(C(=O)/C=C/c2ccc(N3CCCCC3)c([N+](=O)[O-])c2)c(OC)c1 | active: 11.6 µM |
| CC1=Cc2ccccc2C(C#N)N1C(=O)c1ccccc1 (centres undefined) | inconclusive [activator, single point] |
| COC(=O)c1ccc(N2CCN(C)CC2)c(NC(=O)c2ccc(-c3ccc(Cl)cc3)o2)c1 | inactive |
| COC(=O)c1c(-c2cc(OC)cc(OC)c2)sc2ccc(OC)cc12 | inconclusive [activator, full curve, poor fit] |
| CCNC(=O)CC1C(=O)N(C)C(=S)N1NC(=O)c1ccc(Cl)cc1 (centres undefined) | inactive |
| COc1cnc(-c2ccccc2)nc1Oc1ccc(C(C)(C)C)cc1 | inconclusive [activator, single point] |
| O=C(COC(=O)/C=C/c1ccc(F)cc1)NC1CCCCCC1 | inactive |
| COc1cccc(CN(C)CC(=O)Nc2cc(S(=O)(=O)N3CCCC3)ccc2Cl)c1OC | inconclusive [activator, partial curve, poor fit] |
| CSc1ccccc1OCc1cc(C(=O)N(Cc2nccn2C)C(C)C)no1 | inconclusive [activator, partial curve, poor fit] |
| Fc1ccc(Cn2nnnc2C(c2cccs2)N2CCCCCC2)cc1 (centres undefined) | inconclusive [activator, partial curve, poor fit] |
| O=C(COC(=O)C1CCN(S(=O)(=O)c2ccc3c(c2)OCCO3)CC1)Nc1ccccc1OC(F)F | inconclusive [activator, partial curve, poor fit] |
| Cc1c(N2C(=O)/C(=C\c3ccccc3O)SC2=S)c(=O)n(-c2ccccc2)n1C | inconclusive [activator, single point] |
| CCCCNC(=O)CCCCCn1c(=O)[nH]c2cc(C(=O)OC)ccc2c1=O | inconclusive [activator, partial curve, poor fit] |
| N#Cc1cn(-c2ccccc2)nc1-c1ccc2c(c1)OCCO2 | active: 10.3 µM |
| COC(=O)Nc1ccc(S(=O)(=O)NNC(=O)c2c(O)c3ccccc3[nH]c2=O)cc1 | active: 20.6 µM |
| COc1ccc2c(c1OC)C(=O)N1c3ccccc3C(=O)N(c3ccccc3F)C21 (centres undefined) | inconclusive [activator, full curve, poor fit] |
| O=S(=O)(c1ccc2nc(COc3ccc(Cl)cc3Cl)[nH]c2c1)N1CCOCC1 | inactive |
| N#CCCN(Cc1cccnc1)S(=O)(=O)c1ccc(S(=O)(=O)N2CCCCCC2)cc1 | inactive |
